Experiment [1] relates to rice blast fungi (Magnaporthe grisea). It is filed as in vivo. As to conditions: rice blast, spray treatment.
The test system of experiment [2] is tomato late blight fungi (Phytophthora infestans). It is filed as in vivo. The note with it: tomato late blight, spray treatment.
In experiment [3] the test system is cucumber anthracnose fungi (Colletotrichum orbiculare). Put plainly: Test Example H: cucumber anthracnose, spray treatment of cucumber plants. As to conditions: cucumber anthracnose, 250 ppm spray, 6 to 10 days after inoculation.

`CCc1c(-c2c(F)cc(F)cc2F)n(-c2cccc(OC)c2C)cc(C)c1=O` [Compound 514]: in experiment [1], the “Test A control value” is “H (H shows the control value of more than 50%)”. Moreover, the “Test F control value” in experiment [2] is “L (L shows the control value of 50% or less)”. In addition, in experiment [3], the “Test H control value” is “H (H shows the control value of more than 50%)”.

Regarding `CCc1c(-c2c(F)cc(F)cc2F)n(-c2cccc(Cl)c2C)cc(Br)c1=O` [Compound 515], the “Test A control value” in experiment [1] was “H (H shows the control value of more than 50%)”. Also, the “Test F control value” in experiment [2] was “H (H shows the control value of more than 50%)”. The “Test H control value” in experiment [3] is on record as “H (H shows the control value of more than 50%)”.

As for `CCc1ccccc1-n1cc(C)c(=O)c(C)c1-c1ccccc1` [Compound 516], the “Test A control value” in experiment [1] is on record as “L (L shows the control value of 50% or less)”. Further, in experiment [2], the “Test F control value” is “H (H shows the control value of more than 50%)”. The “Test H control value” in experiment [3] was “H (H shows the control value of more than 50%)”.

As for `Cc1ccc(Cl)cc1-n1cc(C)c(=O)c(C)c1-c1ccccc1` [Compound 517], in experiment [1], the “Test A control value” is given as “L (L shows the control value of 50% or less)”. Besides, in experiment [2], the “Test F control value” is recorded as “H (H shows the control value of more than 50%)”. Further, the “Test H control value” in experiment [3] is “L (L shows the control value of 50% or less)”.

Consider `Cc1ccc(Br)cc1-n1cc(C)c(=O)c(C)c1-c1ccccc1` [Compound 518], for which the “Test A control value” in experiment [1] was “H (H shows the control value of more than 50%)”. In experiment [2], the “Test F control value” is reported as “L (L shows the control value of 50% or less)”. The “Test H control value” in experiment [3] is “H (H shows the control value of more than 50%)”.

Regarding `CCc1c(-c2c(F)cc(F)cc2F)n(-c2cc(C)ccc2C)cc(Br)c1=O` [Compound 519], the “Test A control value” in experiment [1] is “H (H shows the control value of more than 50%)”. Further, in experiment [2], the “Test F control value” is reported as “L (L shows the control value of 50% or less)”. Further, the “Test H control value” in experiment [3] is given as “H (H shows the control value of more than 50%)”.

On to `CCc1c(-c2c(F)cc(F)cc2F)n(-c2cc(C)ccc2C)cc(C)c1=O` [Compound 520], for which, in experiment [1], the “Test A control value” was “H (H shows the control value of more than 50%)”. The “Test F control value” in experiment [2] is “L (L shows the control value of 50% or less)”. Further, the “Test H control value” in experiment [3] is reported as “H (H shows the control value of more than 50%)”.

With `CCc1c(-c2c(F)cc(F)cc2F)n(-c2cc(F)ccc2C)cc(Br)c1=O` [Compound 521], the “Test A control value” in experiment [1] is recorded as “H (H shows the control value of more than 50%)”. Further, the “Test F control value” in experiment [2] is listed as “L (L shows the control value of 50% or less)”. For the same compound, the “Test H control value” in experiment [3] is given as “H (H shows the control value of more than 50%)”.

As for `CCc1c(-c2c(F)cc(F)cc2F)n(-c2cc(F)ccc2C)cc(C)c1=O` [Compound 522], the “Test A control value” in experiment [1] is “H (H shows the control value of more than 50%)”. Also, the “Test F control value” in experiment [2] is on record as “L (L shows the control value of 50% or less)”. The “Test H control value” in experiment [3] is recorded as “H (H shows the control value of more than 50%)”.

As for `COc1cccc(-n2cc(C)c(=O)c(C)c2-c2c(F)cccc2F)c1C` [Compound 523], the “Test A control value” in experiment [1] was “H (H shows the control value of more than 50%)”. Moreover, in experiment [2], the “Test F control value” was “L (L shows the control value of 50% or less)”. In addition, the “Test H control value” in experiment [3] is “H (H shows the control value of more than 50%)”.

Turning to `CCc1c(-c2c(F)cccc2F)n(-c2cccc(Cl)c2C)cc(Br)c1=O` [Compound 524], the “Test A control value” in experiment [1] is given as “H (H shows the control value of more than 50%)”. In experiment [2], the “Test F control value” is on record as “L (L shows the control value of 50% or less)”. For the same compound, the “Test H control value” in experiment [3] is on record as “L (L shows the control value of 50% or less)”.

For `CCc1c(-c2c(F)cccc2F)n(-c2cccc(Cl)c2C)cc(C)c1=O` [Compound 525], the “Test A control value” in experiment [1] is “H (H shows the control value of more than 50%)”. Besides, the “Test F control value” in experiment [2] was “L (L shows the control value of 50% or less)”. Besides, the “Test H control value” in experiment [3] was “H (H shows the control value of more than 50%)”.

Consider `CCc1c(-c2c(F)cccc2F)n(-c2cccc(Br)c2C)cc(Br)c1=O` [Compound 526], for which the “Test A control value” in experiment [1] is “H (H shows the control value of more than 50%)”. In experiment [2], the “Test F control value” is given as “L (L shows the control value of 50% or less)”. Also, the “Test H control value” in experiment [3] is “H (H shows the control value of more than 50%)”.

Take `CCc1c(-c2c(F)cc(F)cc2F)n(-c2cc(OC)ccc2C)cc(Br)c1=O` [Compound 527]: in experiment [1], the “Test A control value” is reported as “H (H shows the control value of more than 50%)”. Further, the “Test F control value” in experiment [2] is recorded as “L (L shows the control value of 50% or less)”. Moreover, the “Test H control value” in experiment [3] is recorded as “H (H shows the control value of more than 50%)”.

Consider `CCc1c(-c2c(F)cc(F)cc2F)n(-c2cccc(C)c2C)cc(Br)c1=O` [Compound 528, 5-bromo-1-(2,3-dimethylphenyl)-3-ethyl-2-(2,4,6-trifluorophenyl)pyridin-4(1H)-one], for which the “Test A control value” in experiment [1] was “H (H shows the control value of more than 50%)”. Moreover, the “Test F control value” in experiment [2] was “L (L shows the control value of 50% or less)”. In experiment [3], the “Test H control value” is “H (H shows the control value of more than 50%)”.

In the case of `CCc1c(-c2c(F)cc(F)cc2F)n(-c2cc(Br)ccc2C)cc(Br)c1=O` [Compound 529], the “Test A control value” in experiment [1] is “H (H shows the control value of more than 50%)”. Also, in experiment [2], the “Test F control value” is listed as “L (L shows the control value of 50% or less)”. In addition, the “Test H control value” in experiment [3] was “H (H shows the control value of more than 50%)”.

`CCc1c(-c2c(F)cc(F)cc2F)n(-c2cccc(F)c2C)cc(Br)c1=O` [Compound 530]: in experiment [1], the “Test A control value” is given as “H (H shows the control value of more than 50%)”. Besides, in experiment [2], the “Test F control value” is given as “L (L shows the control value of 50% or less)”. Moreover, in experiment [3], the “Test H control value” is reported as “H (H shows the control value of more than 50%)”.

For `CCc1c(-c2c(F)cccc2F)n(-c2ccccc2)cc(Br)c1=O` [Compound 531], the “Test A control value” in experiment [1] is on record as “H (H shows the control value of more than 50%)”. Moreover, the “Test F control value” in experiment [2] is reported as “L (L shows the control value of 50% or less)”. Further, in experiment [3], the “Test H control value” is “H (H shows the control value of more than 50%)”.

As to `CCc1c(-c2c(F)cc(F)cc2F)n(-c2cc(OC)ccc2C)cc(C)c1=O` [Compound 532], the “Test A control value” in experiment [1] is listed as “H (H shows the control value of more than 50%)”. In addition, the “Test F control value” in experiment [2] is reported as “L (L shows the control value of 50% or less)”. Besides, in experiment [3], the “Test H control value” is reported as “H (H shows the control value of more than 50%)”.

As to `CCc1c(-c2c(F)cc(F)cc2F)n(-c2cccc(C)c2C)cc(C)c1=O` [Compound 533, 1-(2,3-dimethylphenyl)-3-ethyl-5-methyl-2-(2,4,6-trifluorophenyl)pyridin-4(1H)-one], the “Test A control value” in experiment [1] was “H (H shows the control value of more than 50%)”. Also, in experiment [2], the “Test F control value” is reported as “L (L shows the control value of 50% or less)”. In experiment [3], the “Test H control value” was “H (H shows the control value of more than 50%)”.

As for `CCc1ccccc1-n1cc(C)c(=O)c(CC)c1-c1ccccc1` [Compound 534], the “Test A control value” in experiment [1] is “L (L shows the control value of 50% or less)”. In experiment [2], the “Test F control value” is “L (L shows the control value of 50% or less)”. Besides, in experiment [3], the “Test H control value” was “H (H shows the control value of more than 50%)”.
